Laboratory results published in the supplement of paper PMC12889115.
The list shows a part of the results. Repeats are few or missing, and single values can be far off.

Tested on: Salmonella enterica serovar Typhimurium SL1344
Assay: bacterial growth OD600 after 18 h in MHB with 0.5 µg/mL polymyxin B; higher = more bacterial growth (less inhibition)
Conditions: 25 µM; polymyxin B 0.5 µg/mL; system: broth
Protocol: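 Secondary screen of the 553 primary hits at 25 µM. (i) S. Typhimurium SL1344 grown in Mueller-Hinton broth with 0.5 µg/mL polymyxin B, OD600 read after 18 h. (ii) SAFIRE assay: RAW 264.7 macrophages infected with S. Typhimurium sifB::gfp (MOI 30); compound added 2 h post-infection; cells fixed at 18 h; GFP-positive pixel fraction per macrophage imaged by confocal microscopy and expressed as % of DMSO control.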
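Also: polymyxin B level opens the outer membrane while sparing the inner membrane, with novobiocin wells as reference growth inhibitor.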

| SMILES | bacterial growth OD600 |
| --- | --- |
| COc1ccc(-n2ncc(C(C)NS(=O)(=O)c3cccc4nsnc34)c2C)cc1 (stereo unspecified) | 0.376 |
| CC(C)Cc1ccc(C(=O)N2CCCC(CNC(=O)c3ccc(F)cc3)C2)cc1 (stereo unspecified) | 0.003 |
| Cc1ccccc1-c1noc(-c2ccc(N[C@H]3CC[C@H](O)CC3)nc2)n1 | 0.42 |
| O=C(c1ccc(Cn2cnnn2)cc1)N1CCCC(CCc2ccccc2)C1 (stereo unspecified) | 0.006 |
| CCCc1ccc2oc(C(=O)NCCc3cccnc3)c(C)c2c1 | -0.004 |
| CCc1noc(C)c1C(=O)N1CCC(CCC(=O)N2CCC(Cc3ccccc3)CC2)CC1 | 0.293 |
